Reference: article PMC12136788
Some of the results follow.

T1: UNK ZnF1-6 (called full-length) (human, UniProt Q9C0B0 30-357)
T1 sequence: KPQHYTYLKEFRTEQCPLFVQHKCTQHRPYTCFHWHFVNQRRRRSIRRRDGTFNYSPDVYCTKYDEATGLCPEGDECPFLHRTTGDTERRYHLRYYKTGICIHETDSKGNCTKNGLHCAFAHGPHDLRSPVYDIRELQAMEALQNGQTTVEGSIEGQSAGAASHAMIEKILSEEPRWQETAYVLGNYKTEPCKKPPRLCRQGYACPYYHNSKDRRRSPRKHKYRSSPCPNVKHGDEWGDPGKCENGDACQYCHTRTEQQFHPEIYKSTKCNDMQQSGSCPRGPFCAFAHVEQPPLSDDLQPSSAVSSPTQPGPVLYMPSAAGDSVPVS

B1: chr14:53043751:53043854:-|3pUTR|ENSG00000100523|unk|FALSE|unique (ssRNA)
RNA: GGGAGUUCUACAGUCCGACGAUCACUUAGAUUAAAUCUUGCUUUAUUUUUACUUUAAAAUUAGUCUUGCUAAGGCCUUAUGUUAGUUCAUACUUUCUUUUCAACAGUAAUCUUGUUUAUAAUCCAGUGUUUCUGUGUUUUAGGCAACAGAGGAUUGAGCAUCA
B2: chr17:61865808:61865921:-|3pUTR|ENSG00000108506|unk|total|mutant (ssRNA)
RNA: GGGAGUUCUACAGUCCGACGAUCUUCUAUGAGAAUGAGUUUGCCGCUGUUUCAAAUCAUGAAGUGCACCGUAUCACAUGUGACCGAAUAUUUAUAACUUUUUAUCCGAUGCUUAAUGUUCAAUUAAGUAAUUUUGAUGUGAAACAACAGAGGAUUGAGCAUCA
B3: chrX:53532849:53532950:-|3pUTR|ENSG00000086758|unk|total|mutant (ssRNA)
RNA: GGGAGUUCUACAGUCCGACGAUCGUGCUCCUCAGAUUCUGUGUUCAGAAGGAUUUGCUGCAUUGAGACUUGAAACCUUUGGACCGGGGAAAAAAUUAUAUAUAUAUAUAUUUUUUUGUUCUGUUUGCAUUUCUUAAUUUGUGCCAACAGAGGAUUGAGCAUCA
B4: chr6:57184343:57184440:+|3pUTR|ENSG00000112208|msi1_unk|FALSE|overlapping (ssRNA)
RNA: GGGAGUUCUACAGUCCGACGAUCUCUUCAGUUUUGUGAAUAACAAAACUAGCAAUAUUUUAAUUAUCUAUCUAGAGAUUUUUUAGAUUGAAUUCUUGUCUUGUACUAGGAUCUAGCAUAUUUCACUAUUCUGUGGAUGAAUACCAACAGAGGAUUGAGCAUCA
B5: chr12:10908389:10909298:-|CDS|ENSG00000212128|control|control|control (ssRNA)
RNA: GGGAGUUCUACAGUCCGACGAUCCAUGCUUUGUGAGACGAUUGGAGUCUUCUCUCCUUCAAGCCACUCCUUUCUUCUGAUUCUAGGAAACGCUAAGUUAAGACAGGCCUUUCUUUUGGUGGCAGCUAAGGUAUGGGCUAAACGCAACAGAGGAUUGAGCAUCA
B6: chr20:45898604:45898705:+|3pUTR|ENSG00000064601|unk|total|mutant (ssRNA)
RNA: GGGAGUUCUACAGUCCGACGAUCAGAGCCCUGUACAUCCCAGACUGGGCCCAGGGUCUCCCACCGACAGCCUGGGGGCAAGUCCGCACUUUAUUCCCGCAGCAGUUCCUGAAUGGGGUGGCCUGGCCCCUUCUCUGCUUAAAGCAACAGAGGAUUGAGCAUCA

molecular target: T1, UNK ZnF1-6 (called full-length); assay: nsRBNS (natural sequence RNA bind-n-seq); RBNS binding buffer (assumed for nsRBNS): 25 mM Tris pH 7.5, 150 mM KCl, 3 mM MgCl2, 0.01% Triton X-100, 500 ug/ml BSA, 20 U/ml SUPERase-In, 4 C; UNK is unkempt and MSI1 is Musashi-1; names of the RNAs are library labels; protein concentration not given here; high values mean tight binding

Binder | binding signal
B1 | 15 enrichment R
B2 | 0.384 enrichment R
B3 | 0.637 enrichment R
B4 | 6.31 enrichment R
B5 | 0.609 enrichment R
B6 | 1.01 enrichment R
